Results: paper PMC4336329 (PLoS ONE, 2015)
In all, about 310,000 compounds went through this assay and about 14,000 (4.5%) showed an effect of 50% or more. Effects have a minus sign here. The list shows a part of the results.

Biological target: human ether-à-go-go-related gene (hERG) potassium channel (human, UniProt Q12809)
Test: primary screen, population patch clamp on CHO cells stably expressing hERG
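Further: peak tail current of the secondary pulse compared with the same well before compound.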

Sequence of human ether-à-go-go-related gene (hERG) potassium channel (Q12809 whole entry, looked up): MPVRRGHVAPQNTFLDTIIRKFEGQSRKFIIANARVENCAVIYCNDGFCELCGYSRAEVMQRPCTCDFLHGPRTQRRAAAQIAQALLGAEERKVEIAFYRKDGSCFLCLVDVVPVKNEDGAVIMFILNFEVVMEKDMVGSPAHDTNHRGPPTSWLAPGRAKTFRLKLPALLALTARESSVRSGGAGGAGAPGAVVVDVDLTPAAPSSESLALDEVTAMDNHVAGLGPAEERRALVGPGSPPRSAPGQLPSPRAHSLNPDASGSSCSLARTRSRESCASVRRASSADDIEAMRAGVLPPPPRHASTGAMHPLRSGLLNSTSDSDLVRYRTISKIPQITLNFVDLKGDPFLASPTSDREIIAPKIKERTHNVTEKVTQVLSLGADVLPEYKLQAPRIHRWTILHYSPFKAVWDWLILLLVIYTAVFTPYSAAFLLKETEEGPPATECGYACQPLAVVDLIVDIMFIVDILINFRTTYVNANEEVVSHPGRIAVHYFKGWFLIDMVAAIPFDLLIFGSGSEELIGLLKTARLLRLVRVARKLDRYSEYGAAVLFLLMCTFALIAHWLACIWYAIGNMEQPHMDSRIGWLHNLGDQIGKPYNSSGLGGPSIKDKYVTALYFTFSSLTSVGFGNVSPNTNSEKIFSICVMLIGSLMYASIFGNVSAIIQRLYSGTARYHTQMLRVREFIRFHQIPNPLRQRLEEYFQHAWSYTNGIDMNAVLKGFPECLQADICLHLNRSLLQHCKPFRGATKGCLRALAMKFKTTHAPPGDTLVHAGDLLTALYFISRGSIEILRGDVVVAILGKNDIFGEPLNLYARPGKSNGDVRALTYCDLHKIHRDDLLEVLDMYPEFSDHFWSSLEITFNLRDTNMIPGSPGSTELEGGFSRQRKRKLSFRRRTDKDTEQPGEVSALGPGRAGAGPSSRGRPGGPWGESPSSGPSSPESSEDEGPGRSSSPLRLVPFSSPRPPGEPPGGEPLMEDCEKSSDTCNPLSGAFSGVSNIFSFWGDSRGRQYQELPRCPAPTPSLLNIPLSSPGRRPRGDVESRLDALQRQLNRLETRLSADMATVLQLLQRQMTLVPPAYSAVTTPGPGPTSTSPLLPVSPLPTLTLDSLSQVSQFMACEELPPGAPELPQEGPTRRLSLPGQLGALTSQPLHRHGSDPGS

SMILES	hERG current change (%, negative = inhibition) at 10uM [%]
COCCn1c(SCC(=O)Nc2sccc2C(N)=O)nc2cc(Cl)ccc2c1=O	-14.6
CCOc1cc2c(cc1OCC)C(C(=O)O)C(c1cc(OC)c(OC)c(OC)c1)N(C)C2=O (stereo not drawn)	3.02
CC(=O)Nc1ccc(OCCF)cc1	11.8
Clc1ccc(CSc2nnc3ccccn23)c(Cl)c1	-25.1
O=C(Nc1ccc(Cl)cc1)C1CCN(C(=O)c2ccco2)CC1	-49
CN1N=C(C(=O)Nc2ccc3c(c2)CCC3)CCC1=O	27.6
O=C(c1cccc2ccccc12)N1CCN=C1SCc1ccc([N+](=O)[O-])cc1	-10.7
COc1ccc(N(Cc2cc3ccccc3[nH]c2=O)S(=O)(=O)c2ccc(OC)cc2)cc1	2.82
CC(Sc1nc2c(c(=O)n(C)c(=O)n2C)n1Cc1cc2c(cc1Cl)OCO2)C(=O)O (stereo not drawn)	25.7
Cc1ccccc1OCc1nnc(SCc2cc(=O)[nH]c3ccccc23)n1-c1ccccc1	-7.1
CC(=O)NC(Cc1ccc(N(CCCl)CCCl)cc1)C(=O)NC(C(=O)O)C(C)C (stereo not drawn)	25
COC(=O)/C=C/c1c(C)nc(NCc2ccccc2)nc1Cl	12.3
COCCN(C(=O)COc1ccc(Cl)cc1)c1nnc(-c2cccnc2)s1.Cl	-6.48
COc1cc(C(=O)NCc2nnc(SCC(=O)NCCc3ccccc3)o2)cc(OC)c1OC	18
CCN1C(=O)CC(N2CCOCC2)C1=O (stereo not drawn)	13.7
COc1ccccc1NC(=O)CSc1nnc(COc2ccc(Cl)cc2)n1Cc1ccco1	-12.7
COc1cc(NC(=O)C2CCCN(c3ncccn3)C2)cc(OC)c1 (stereo not drawn)	0.686
CC(=O)NC(CC(=O)NCCN1C(=O)S/C(=C\c2ccccc2)C1=O)c1ccccc1 (stereo not drawn)	-15.7
COc1ccc(CN2CCc3c([nH]c4ccccc34)C2)c(OC)c1C	-62.4
O=C(c1nc2ccc(Cl)cn2c1CNCCn1ccnc1)N1CCCCCCC1	-1.72
Cc1cccc(C(=O)Oc2cc(C)[nH]c(=O)c2[N+](=O)[O-])c1	16.7
COc1ccccc1-c1cn(S(=O)(=O)c2ccc(F)cc2)nc1N	-4.89
CC(c1ccccc1)C1CC(=O)N(c2ccccc2)C1=O (stereo not drawn)	1.02
COc1ccc(NC(=O)CSCc2cc(=O)n3c(C)csc3n2)cc1	19.1
